# The full ranking holds about 33,000 sequences; the median of “E-score (-0.5 to 0.5)” is about -0.012, and the highest 2% start at about 0.29. Some of the results follow.
# Target: T1, Ybr033w (UniProt P38073)
# T1 sequence: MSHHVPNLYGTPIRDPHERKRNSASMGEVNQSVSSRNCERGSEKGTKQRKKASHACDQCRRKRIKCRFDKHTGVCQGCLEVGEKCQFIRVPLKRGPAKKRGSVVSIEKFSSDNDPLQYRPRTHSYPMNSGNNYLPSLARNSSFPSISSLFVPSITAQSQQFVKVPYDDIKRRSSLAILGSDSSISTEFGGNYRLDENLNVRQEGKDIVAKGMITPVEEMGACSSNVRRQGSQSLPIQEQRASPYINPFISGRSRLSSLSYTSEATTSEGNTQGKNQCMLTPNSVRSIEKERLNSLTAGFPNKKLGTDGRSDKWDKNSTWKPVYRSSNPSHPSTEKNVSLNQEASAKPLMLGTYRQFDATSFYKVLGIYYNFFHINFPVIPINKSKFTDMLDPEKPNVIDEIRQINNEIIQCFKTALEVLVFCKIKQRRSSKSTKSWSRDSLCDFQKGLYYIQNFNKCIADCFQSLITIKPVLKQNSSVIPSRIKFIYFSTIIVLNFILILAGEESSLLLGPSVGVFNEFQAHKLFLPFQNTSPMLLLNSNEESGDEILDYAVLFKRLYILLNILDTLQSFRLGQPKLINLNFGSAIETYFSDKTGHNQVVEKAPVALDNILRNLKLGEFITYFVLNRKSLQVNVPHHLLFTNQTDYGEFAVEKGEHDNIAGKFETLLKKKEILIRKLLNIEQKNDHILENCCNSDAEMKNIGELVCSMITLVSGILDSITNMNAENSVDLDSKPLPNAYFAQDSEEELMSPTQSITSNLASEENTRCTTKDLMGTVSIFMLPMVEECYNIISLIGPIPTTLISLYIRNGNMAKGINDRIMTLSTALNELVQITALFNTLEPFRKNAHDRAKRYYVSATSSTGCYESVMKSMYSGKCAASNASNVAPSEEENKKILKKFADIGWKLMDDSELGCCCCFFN
# Experiment: PBM E-score (8-mer binding enrichment) (E-score (-0.5 to 0.5)); higher = stronger / more preferred TF binding; most listed sequences are background and not binding sites
# Settings: protein concentration: 200 nM; construct: GST-full length
# Procedure, shortened: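 E-scores (a modified Wilcoxon-Mann-Whitney statistic) were assigned by the Universal PBM Analysis Suite to every ungapped eight-base word pooled with its reverse complement. The input came from universal all-10-mer Agilent arrays made double-stranded by primer extension and probed with GST-tagged yeast transcription factors at about 100-200 nM. Fluorescent anti-GST detected bound protein, and masliner normalised the scans.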
row,Sequence,PBM E-score
1,CGGTCGAA,-0.0905
2,ATTCTCCC,0.14
3,GGACCTCC,-0.353
4,CAGTCTGA,-0.112
5,CCATTCCG,-0.0635
6,ATGTTCTG,0.114
7,TCAAACAA,0.187
8,CTTTGAAC,-0.136
9,AAGTCAAG,-0.173
10,CGGATTGC,0.0199
11,AGCGCAAC,0.0558
12,CACTTCAC,0.0793
13,AGAGTTTA,0.235
14,CACGTCCG,-0.213
15,AGTGACGA,0.0162
16,AGAGACAT,0.101
17,CGGACGGA,-0.25
18,GGGGTTAA,-0.149
19,ATGTTCCG,0.458
20,AACCGGAT,0.254
21,CCCGCACC,-0.137
22,ACAATTAG,0.0047
23,GATCATCC,0.268
24,GGTAAGAC,-0.031
25,CTCAAATA,0.0996

row,Sequence,PBM E-score
1,CTGATTTA,0.156
2,AGCTGGAT,0.00667
3,CTTATACA,0.0352
4,ACAAGGCC,-0.151
5,GACACTGA,0.0182
6,CCTTGAAC,-0.0759
7,AAACTGGT,0.0445
8,ACCAATCC,-0.0137
9,GTAGCACA,-0.0634
10,GAGTGTAC,-0.0792
11,ATTCAAGG,-0.0509
12,AACTGAGA,0.0375
13,GATGATAA,0.167
14,CACAAGCA,0.0199
15,GGGCAACA,-0.113
16,ACCAGCGT,-0.25
17,CCCAATCG,-0.175
18,ATCATGGG,-0.179
19,AGCGTACA,-0.2
20,AGAAGTTA,0.0709
21,CCCCCGAG,-0.378
22,AGGCCCGG,-0.364
23,AAGGGCCC,-0.291
24,ATCACGCG,0.0849
25,ATACTAGG,0.0434

row,Sequence,PBM E-score
1,AAAAGGTG,0.0842
2,AACAAAAA,0.212
3,AGGTTAGG,0.00933
4,ACCCAGGT,-0.365
5,CGCAACTC,0.091
6,GCGAGTCA,-0.0811
7,TAGCACCA,0.124
8,CTTGCGAA,0.212
9,ACTCGTTC,-0.003
10,ATCGTCGG,-0.176
11,ACTGCGTC,-0.0948
12,GAACGCAA,-0.0674
13,ACGGAAAT,0.313
14,CTAATAAC,0.216
15,AGTATAGG,-0.0308
16,CATGCAAC,0.0412
17,AAAAGACC,-0.141
18,CCAGCGAC,-0.116
19,ATGCCGCC,-0.209
20,CTTGCATC,-0.144
21,AGCGACTA,0.0503
22,CTCGCGCC,-0.145
23,ACATCCTA,0.0983
24,CAAGGCTA,0.0421
25,ACTCTTTA,-0.0522

row,Sequence,PBM E-score
1,GTGCGTGA,0.102
2,AATGCGTA,0.142
3,CTAGTGTC,0.0353
4,AATTAATT,0.214
5,GTTCTCGA,-0.00386
6,AGGACGTG,-0.195
7,AGGCCCCC,-0.394
8,AATCCCCG,0.00375
9,ATCCGGGC,-0.00836
10,TAAGTCGA,0.0883
11,GTTCGATA,0.106
12,AGAGAGTG,0.0856
13,ACCTTGGA,-0.0302
14,AAAGGTCC,-0.128
15,ACGTGAGA,-0.103
16,GCTTTTTA,0.142
17,ACTTATGA,0.171
18,CTGGATAA,0.316
19,AGTAAGGC,-0.00682
20,CCGGAAGA,0.404
21,GAGTTGGC,0.00816
22,CCCCAATA,-0.0487
23,AACCGACG,-0.0367
24,AAACCATC,0.206
25,AGTTCTAA,0.137

row,Sequence,PBM E-score
1,AGTGACTC,-0.0523
2,ACCACGCA,-0.0922
3,CATACGCC,-0.00989
4,ACGACGCG,0.0415
5,ACGTACAG,-0.2
6,GCAGCAGC,-0.206
7,AGGAGATG,-0.137
8,TAGACTAA,0.0338
9,GCACATCA,0.0666
10,CACTGTGG,-0.118
11,GGGCCAAA,-0.0948
12,CGTTGATA,0.076
13,ATTCAATC,0.187
14,GTTCCAGA,0.187
15,ACGTTACC,-0.221
16,TGGGTTAA,0.0191
17,CCAGGGAA,-0.267
18,GTGTCACA,0.0387
19,CGATGGGA,-0.0352
20,ACACCTGG,-0.242
21,GAAGGTCC,-0.242
22,ATGGTTCG,0.0191
23,GGTCAATA,-0.0226
24,TCTCACCA,0.133
25,GCGGATCA,0.255

row,Sequence,PBM E-score
1,CATATGCC,0.0243
2,ATTTGCCA,-0.068
3,AGATAACT,0.103
4,ACCGCAAT,0.165
5,CATCTTGC,-0.00719
6,CCACAGCA,-0.0457
7,CAAAAATC,0.236
8,ATGCTAAA,0.0741
9,AGCGTAAA,0.17
10,AACACGCG,0.137
11,AAAATTTG,0.263
12,GGTGCGTA,-0.16
13,ATGGTGTA,0.108
14,AGCGCTCC,-0.181
15,GGAGCACA,-0.0835
16,CTGAGAGA,-0.152
17,ATCAGTGC,-0.0292
18,GTAACCGA,-0.0166
19,ATGAAGTG,0.0211
20,ACCTCCAG,-0.198
21,ACGGGTAG,-0.195
22,CGACAGGC,-0.21
23,CAGGAACG,-0.0646
24,ATGTACGA,0.136
25,AAGCTATC,0.168

row,Sequence,PBM E-score
1,AAAAGCGT,0.0775
2,GCCATGAC,-0.131
3,GTAATTCA,0.211
4,AACTGTAC,-0.082
5,GTGAATCA,0.042
6,CTGATGTA,0.0171
7,TCAATGCA,-0.0957
8,AGCGAATA,0.0291
9,AGACGTCT,-0.272
10,AAATGTGT,0.179
11,ACCTTGAG,-0.00395
12,CAGAATGG,0.0185
13,ACCAGGGT,-0.0923
14,GAACAGTA,0.118
15,GGGTAAAC,0.113
16,GTTATACA,0.071
17,CCGGCCCC,-0.325
18,GGTACCGA,-0.414
19,ATTGTACC,0.0876
20,CTCACGGC,-0.261
21,CACAGCTG,-0.159
22,TACGCCGA,-0.162

# — the supplement of paper PMC3334620
